# Source: article PMC4336329 (PLoS ONE, 2015)
# Screen size: about 310,000 compounds; about 2,200 (0.71%) showed an effect of 50% or more. The effect is printed as a negative number. The list shows a part of the results.
# Target: human ether-à-go-go-related gene (hERG) potassium channel (human, UniProt Q12809)
# Assay: primary screen, population patch clamp on CHO cells stably expressing hERG
# human ether-à-go-go-related gene (hERG) potassium channel, sequence (Q12809 whole entry, looked up): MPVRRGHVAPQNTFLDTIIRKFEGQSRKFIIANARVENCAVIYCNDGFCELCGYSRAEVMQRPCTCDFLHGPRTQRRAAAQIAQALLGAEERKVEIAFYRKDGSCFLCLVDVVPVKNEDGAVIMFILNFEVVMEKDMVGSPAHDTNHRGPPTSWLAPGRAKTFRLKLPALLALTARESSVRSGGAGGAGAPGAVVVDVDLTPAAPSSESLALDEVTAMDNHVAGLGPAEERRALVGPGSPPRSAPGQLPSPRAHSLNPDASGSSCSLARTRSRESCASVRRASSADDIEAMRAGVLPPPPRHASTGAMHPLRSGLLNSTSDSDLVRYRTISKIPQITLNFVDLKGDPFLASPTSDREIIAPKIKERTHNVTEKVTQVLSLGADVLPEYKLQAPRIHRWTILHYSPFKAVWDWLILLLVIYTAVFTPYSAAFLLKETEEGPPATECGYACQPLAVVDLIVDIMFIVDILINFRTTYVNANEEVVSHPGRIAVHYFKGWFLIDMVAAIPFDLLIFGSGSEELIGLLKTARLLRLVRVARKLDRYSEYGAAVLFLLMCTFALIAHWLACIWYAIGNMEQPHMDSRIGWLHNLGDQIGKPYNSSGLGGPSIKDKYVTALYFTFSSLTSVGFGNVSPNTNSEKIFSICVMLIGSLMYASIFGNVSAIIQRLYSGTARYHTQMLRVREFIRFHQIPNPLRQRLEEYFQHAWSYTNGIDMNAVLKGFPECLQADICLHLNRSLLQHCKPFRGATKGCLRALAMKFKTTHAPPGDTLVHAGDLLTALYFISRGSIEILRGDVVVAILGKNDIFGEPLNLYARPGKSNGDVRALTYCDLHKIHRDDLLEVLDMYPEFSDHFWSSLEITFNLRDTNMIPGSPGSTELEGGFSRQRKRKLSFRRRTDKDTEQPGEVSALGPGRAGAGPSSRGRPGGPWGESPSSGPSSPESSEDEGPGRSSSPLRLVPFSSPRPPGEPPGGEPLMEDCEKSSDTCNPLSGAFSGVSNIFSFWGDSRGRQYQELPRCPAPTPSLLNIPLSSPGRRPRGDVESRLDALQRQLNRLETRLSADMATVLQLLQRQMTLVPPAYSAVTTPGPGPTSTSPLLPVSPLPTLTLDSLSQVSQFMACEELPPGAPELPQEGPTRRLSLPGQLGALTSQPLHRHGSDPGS
row,Compound,"hERG current change (%, negative = inhibition) at 1uM"
1,CCOc1cccc(/C(O)=C2/C(=O)C(=O)N(CCN3CCOCC3)C2c2cccnc2)c1 (stereo not shown),14.6%
2,CC(=O)c1cccc(NC(=O)c2ccc([N+](=O)[O-])o2)c1,-6.03%
3,COc1ccc(-c2nc(CN3CCC(C(=O)N4CCOCC4)CC3)c(C)o2)c(OC)c1,15.2%
4,CCOc1ccc(-c2[nH]nc3c2C(c2ccc(O)cc2)C(C#N)=C(N)O3)cc1 (stereo not shown),7.41%
5,Cc1ccc(NC(=O)c2sc3nc4c(c(-c5ccco5)c3c2N)CCC4)cc1,16.6%
6,CC(=C\C(=O)O)/C(=C/c1ccc(C)o1)C(=O)O,10.3%
7,CC(=O)c1ccc(N(C(=O)CNC(=O)c2ccco2)C(C(=O)NCC2CCCO2)c2ccccc2)cc1 (stereo not shown),10.1%
8,COc1ccc(CN(C)C(=O)c2cccc(C(=O)N(C)Cc3ccc(OC)cc3)c2)cc1,-49.1%
9,COc1ccccc1NC1=NC(CO)(CO)CS1,15.6%
10,CCOc1ccccc1C(=O)NCC(=O)NC(C)c1ccc(-n2ccnc2)cc1 (stereo not shown),-58.3%
11,C[C@H](CCC(=O)NCC(=O)[O-])[C@H]1CC[C@H]2[C@@H]3[C@H](O)C[C@@H]4C[C@H](O)CC[C@]4(C)[C@H]3C[C@H](O)[C@]12C.O.[Na+],-0.765%
12,CCNC(=O)CC1SC(=Nc2cccc3ccccc23)N(C)C1=O (stereo not shown),10.9%
13,Cc1c(Cl)ccc2sc(NC(=O)C3CC3)nc12,16.2%
14,Cc1nnc(NN2CCOCC2)[nH]c1=O,19.3%
15,CCN1CCN(S(=O)(=O)c2ccc(Cl)c(C(=O)NC(C)c3ccccc3Cl)c2)CC1 (stereo not shown),5.99%
16,O=S(=O)(c1ccc(Cl)cc1Cl)n1ccc2cccnc21,13.2%
17,COc1ccc(-c2nnc(CSc3nc4ccccc4c(=O)n3C)o2)cc1OC,13.8%
18,Cc1ccc(NC(=S)NCC(C)CSc2ccc(Cl)cc2)cc1 (stereo not shown),4.54%
19,Cc1ccc(NC(=O)CN2CCCN(S(=O)(=O)c3ccc(Br)s3)CC2)cc1,-35.4%
20,COCCCN1C(=O)c2ccc(C(=O)O)cc2C1=O,0.4%
21,O=C(Nc1nnc(SCc2ccccc2)s1)c1cccc([N+](=O)[O-])c1,4.69%
22,CC(=O)c1ccc2c(c1)CC(C)C(=O)N2C (stereo not shown),10.8%

row,Compound,"hERG current change (%, negative = inhibition) at 1uM"
1,O=S(=O)(NCC1CCN(c2ccc(S(=O)(=O)N3CCOCC3)cc2)CC1)c1ccc(F)cc1,11.8%
2,CSc1oc(-c2ccc(F)cc2)nc1S(=O)(=O)c1ccc(F)cc1,4.6%
3,[N-]=[N+]=CC(=O)CC(c1ccccc1)N1C(=O)c2ccccc2C1=O (stereo not shown),14%
4,COc1cc(NC(=O)CN2C(=O)NC(C)(CC(C)C)C2=O)cc(OC)c1 (stereo not shown),8.98%
5,CCOC(=O)CC1=NC(=O)CS1,10.8%
6,CCN(CC)CC(C)CNC(=O)C1(O)c2ccccc2NC(=O)N1c1ccc(Cl)c(Cl)c1 (stereo not shown),9.43%
7,CCCc1cc(=O)oc2cc(OCc3nn[nH]n3)ccc12,9.28%
8,CCc1noc(C)c1C(=O)N1CCCC(N2CCN(c3cccc(Cl)c3)CC2)C1 (stereo not shown),13.7%
9,Cc1cc(C)cc(NC(=O)CSc2nc3ccccc3nc2N2CCCCC2)c1,10%
10,CC(=O)Nc1cccc([As](=O)(c2cccc(NC(C)=O)c2)c2cccc(NC(C)=O)c2)c1,2.73%
11,CC(=O)Nc1ccc(/C(C)=N/NS(=O)(=O)c2ccc(C)cc2)cc1,12.3%
12,N#Cc1c(NC(=S)NC(=O)Cc2cccs2)sc2c1CCCCC2,2.72%
13,COc1cc(CCC(=O)NCCc2ccc(F)cc2)cc(OC)c1OC,18.3%
14,CN1CCc2c1nc1ccccc1c2N=C1CCCN1Cc1ccccc1.Cl,13.9%
15,COc1ccc(C2SCCN2C(=S)Nc2cccc(Cl)c2)cc1 (stereo not shown),10.4%
16,CCOC(=O)C1CCCN(CCSc2ccc(C)cc2)C1.Cl (stereo not shown),9.49%
17,CCOC(=O)CN1C(=O)CN(c2ccc(C)cc2)C1=O,11%
18,Nc1ccc(-n2cc(-c3ccccc3)[nH]c2=S)cc1,16%
19,O=C(NCc1ccccc1)C(c1ccccc1)N(Cc1cccs1)C(=O)c1cnccn1 (stereo not shown),-2%
20,Cc1c(C(=O)O)oc2ccc(S(=O)(=O)NCc3ccc(F)cc3)cc12,1.84%
21,CCOC(=O)C(=O)N/N=C/c1ccco1,14.9%
